In US9410958B2, “Alkyne-activated fluorogenic azide compounds and methods of use thereof” (The Regents of the University of California, priority 2014, dated 2016):

System: Mycobacterium smegmatis, Corynebacterium glutamicum and Listeria monocytogenes
Assay: Peptidoglycan labeling with cyclooctyne D-amino acids and azido-PEG3-carboxyrhodamine 110
Details: 5 mM D-amino acid, copper-free reaction with 20 μM azido-PEG3-carboxyrhodamine 110
Experimental: Metabolic incorporation of 12-14 into the cell walls of the Gram-positive bacteria Mycobacterium smegmatis, Corynebacterium glutamicum and Listeria monocytogenes was tested. The bacteria were grown for one doubling time in the presence of 5 mM 12, 13 or 14, washed to remove excess amino acid, and then reacted with 20 μM commercially available azido-PEG3-carboxyrhodamine 110, a reagent previously used to image alkyne-funtionalized D-alanine derivative (alkDala)-labeled PG under copper-catalyzed conditions. The cells were washed to remove excess probe, fixed, and analyzed by flow cytometry and microscopy (FIGS. 19-21). The fluorescence intensities observed correlated with the relative reactivities of the parent cyclooctynes. […] Thus, cyclooctyne D-alanine analogs 13 and 14 enable PG imaging with the same sensitivity as the earlier methods, but without the need for a cytotoxic copper catalyst.
(C. glutamicum). […] This wash process was repeated twice more.

For `NC(CNC(=O)OC[C@@H]1[C@@H]2CCC#CCC[C@@H]21)C(=O)O` (some centres unmarked) [Compound 14], the “fluorescence intensity of labeled bacteria” value was “comparable fluorescence intensity to cells metabolically labeled with alkDala”.

`NC(CNC(=O)OC[C@H]1[C@@H]2CCC#CCC[C@@H]21)C(=O)O` (some centres unmarked) [Compound 13] was tested, and the “fluorescence intensity of labeled bacteria” value was “comparable fluorescence intensity to cells metabolically labeled with alkDala”.
